Assay results reported in PubChem BioAssay AID1963576 (National Center for Advancing Translational Sciences (NCATS), 2024).
Out of some 46,000 compounds screened, about 60 (0.1%) were called active. Another 3% or so got no clear call; they are omitted. Calls come from the whole dose curve; as a rule, active = well fitted inhibition curve with a large enough effect; inconclusive = small, poorly fitted or top-dose-only effect; inactive = no such curve, though single readings can be large or run the other way. Some of the results follow.

Experiment: Primary qHTS assay for Inhibitors of ovarian cancer metastasis using an organotypic tumor microenvironment (TME) model.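 For activity change, negative = inhibition: plate controls were DMSO wells for no effect and tomatine positive control wells for full effect.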 Note: nearly all actives have a fitted effect of over 65% in size.
Details: SKOV3ip1-GFP adhesion/invasion on 3D omental model, fluorescence; series mostly up to 45.8 µM; activity change, negative = inhibition: at the top concentration
In short: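 Adhesion/invasion was scored as fixed GFP-labeled SKOV3ip1 cell counts (488/509 nm), normalized to DMSO and tomatine controls. Cancer cells in serum-free medium, with four compound doses (0.36-46 umol/L), sat 2 hr at RT then 16 hr at 37 C on a 48 hr fibroblast/mesothelial/ECM culture.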

Activity change, negative = inhibition, inactive:
CCN(CC)CCOC(=O)c1ccc(NC(=O)CSc2cc(=O)n(CC)c3ccccc23)cc1 -5.64%
COc1ccccc1NC(=O)c1c(C)cc(C)nc1SCC(=O)Nc1cccc(C)c1 -14.6%
COCCNC(=O)CCn1c(=O)c2cc(OC)c(OC)cc2n(CC(=O)Nc2ccccc2OC)c1=O -13.4%
O=C(NCc1ccccc1)c1ccc(NC(=O)N2CCSc3ncccc32)cc1 -3.58%
COc1ccc(-n2cc(-c3ccccc3)c3c(NCc4cccc(Cl)c4)ncnc32)cc1 4.34%
COc1cc(OC)c(NC(=O)c2cnn(-c3cccc(Cl)c3C)c2C2CCN(C(=O)OC(C)(C)C)CC2)cc1Cl -20.1%
Cc1ccc(NC(=O)c2cn(-c3ccccc3)nc2-c2ccccc2)cc1 -5.65%
COc1ccc(Nc2ncnc3onc(-c4ccc(Cl)cc4)c23)cc1Cl -21.2%
CC(C)c1ccc(Nc2c(-c3ccc(N4CCOCC4)cc3)nc3ncccn23)cc1 -2.29%
Cc1ccc(C2=NN(CC(=O)NC(C)c3ccccc3)C(=O)CC2)cc1 (configuration not stated) 3.62%
Cc1ccc(CNC(=O)CSc2ccc(-c3sc(-c4ccccc4)nc3C)nn2)cc1 -12.8%
CCCOC(=O)c1ccc(NC(=O)Cn2nnc3sc4c(c3c2=O)CCC(C(C)(C)C)C4)cc1 (configuration not stated) 2.4%
CCOC(=O)CNC(=O)c1cc2c(=O)n(CC)c3ccccc3c2s1 -8.56%
Cc1ccc(CSc2oc(-c3ccco3)nc2S(=O)(=O)c2ccc(Cl)cc2)cc1 -6.08%
CCOC(=O)c1cccc(NC(=O)c2cc(S(=O)(=O)N3CCCC3)cn2C)c1 8.05%
COc1ccc(-c2onc(C)c2C)cc1S(=O)(=O)Nc1ccc(OC(F)(F)F)cc1 5.35%
O=C(Nc1cccc(C(F)(F)F)c1)c1cc2nc(-c3ccccc3)cc(C(F)(F)F)n2n1 0.0477%
CCCOc1ccc(-c2cccc(NS(=O)(=O)c3cccs3)c2)nn1 0.163%
COc1ccc(NC(=O)c2ccco2)cc1NC(=O)C(C)Oc1ccc(Cl)cc1Cl (configuration not stated) 58.7%
COc1cccc(CNS(=O)(=O)c2c(C)nc3scc(C)n3c2=O)c1 -0.998%
CCCOc1ccc(/C=C/C(=O)Nc2sc3c(c2C(=O)OCC)CCC(C)C3)cc1OC (configuration not stated) -3.45%
CC(=O)c1cc(-c2ccc(F)cc2)n(CC(=O)NC2CCCCCC2)c1C -19.8%
O=S(=O)(c1ccc(Br)cc1)c1nc(-c2ccco2)oc1SCc1ccccc1F 12.5%
COc1ccc(-c2cccc(NS(=O)(=O)c3cccs3)c2)nn1 -8.49%
Clc1ccc(N2CCN(Cc3nnc(-c4ccc5c(c4)OCO5)o3)CC2)cc1 3.31%
CCOc1ccccc1CNC(=O)CCCn1c(=O)c2cccn2c2cccnc21 6.67%
Cc1ccc2onc(CC(=O)N3CCN(c4ccccc4F)CC3)c2c1 3.51%
Cc1oc2ccc(O)c(CN3CCOCC3)c2c1C(=O)Nc1ccc(C(C)C)cc1 -8.71%
CC(=O)N1c2ccccc2CC1C(=O)N1CCN(c2cccc(C)c2C)CC1 (configuration not stated) 37.7%
Clc1ccccc1CSc1nncn2c1cc1occc12 -8.85%
O=C(CCCn1c(=O)c2cccn2c2ccccc21)Nc1cccc(Cl)c1 -0.439%
CCCCN(CC)C(=O)c1c[nH]c2ccc(S(=O)(=O)Nc3cccc(OC)c3)cc2c1=O 2.26%
COc1ccc(NC(=O)C2=C(C)Nc3c(C(=O)Nc4ccc(C)cc4)cnn3C2c2cccc(Cl)c2)cc1 (configuration not stated) -1.23%
CCC(=O)O[C@]1(C(=O)SCF)[C@H](C)C[C@H]2[C@@H]3C[C@H](F)C4=CC(=O)C=C[C@]4(C)[C@@]3(F)[C@@H](O)C[C@@]21C 1.92%
Cc1ccc(NC(=O)C2CCN(S(=O)(=O)c3cccs3)CC2)cc1 6.9%
COC(=O)c1c(C)sc(-c2c(-c3ccc(F)cc3)[nH]c3[nH]c(=O)[nH]c(=O)c23)c1O -6.49%
CCC(=O)N1CCc2cc(S(=O)(=O)CCC(=O)NCc3ccccc3Cl)ccc21 3.83%
CCCc1nn2c(=O)cc(COC(=O)c3ccccc3NC(=O)C3CCCCC3)nc2s1 3.26%
COc1ccc(C(=O)NCC(c2cccnc2)N2CCN(c3ccccc3F)CC2)cc1OC (configuration not stated) -2.57%
Cc1ccc(-n2c(SCc3nc(-c4ccc(Cl)cc4)no3)nnc2-c2ccncc2)cc1 15.6%
CC1=C(C(=O)OC2CCCCCC2)C(c2ccccc2Cl)CC(=O)N1 (configuration not stated) 1.06%
Cc1oc2ncn(C)c(=O)c2c1C(=O)N1CCN(c2ccc(Cl)cc2)CC1 -2.56%
COc1ccc(-c2c(C)nn3c(C(F)(F)F)cc(C)nc23)cc1OC 10.8%
COc1cccc(CNCCCSc2nnnn2C)c1 -11.5%
COc1ccc(Cn2c(C(=O)O)c(CNCCc3cccs3)c3ccc(OC)cc32)cc1 6.74%
CCOc1cccc(CC(=O)N2CCc3c([nH]c4ccccc34)C2c2ccc(OC)cc2)c1OCC (configuration not stated) 2.91%
Cc1nn(C)c2c1c(-c1ccccc1)cc(=O)n2Cc1c(F)cccc1Cl -8.97%
Cc1ccccc1Nc1c(-c2ccccc2O)nc2sccn12 -5.21%
O=C1c2oc3ccccc3c(=O)c2C(c2cccc(O)c2)N1Cc1ccc(F)cc1 (configuration not stated) 4.59%
COc1cc(C2C(C(=O)Nc3ccc(C)cc3C)=C(C)Nc3nc(SCc4ccccc4)nn32)cc(OC)c1OC (configuration not stated) -9.52%
CCN(c1ccccc1)S(=O)(=O)c1nnc(NC(=O)C(C)Oc2ccccc2)s1 (configuration not stated) -12.7%
COc1ccc(N(C(=O)c2ccc(C)cc2)S(=O)(=O)c2ccc(Cl)cc2)cc1 -0.347%
CCOC(=O)Cc1ccc(NC(=O)N2CCC(CN3CCC(C)CC3)CC2)cc1 0.0932%
CCc1cccc(NC(=O)c2sc3nc[nH]c(=O)c3c2C)c1 -0.278%
O=C1CN(C(=O)c2ccc(S(=O)(=O)N3CCCC3)cc2)C(c2ccc(F)cc2)c2cc(F)ccc2N1 (configuration not stated) -4.02%
CCc1ccc(NS(=O)(=O)c2ccc3[nH]cc(C(=O)N4CCCCCC4)c(=O)c3c2)cc1 8.73%
Cc1cccc(-c2nnc(SCC(=O)NC3CCCCC3)o2)c1 0.292%
CCOc1ccc(CCNC(=O)c2ccc(C)c(-n3c(C)nc4cccnc43)c2)cc1OCC 8.59%
Nc1[nH]c(=O)ncc1F 2.81%
Cc1ccc(CNC(=O)c2cnn3c(C)c(Cc4c(F)cccc4Cl)c(C)nc23)cc1 3.25%
Cc1ccc2oc3c(c(=O)c2c1)C(c1cccc(O)c1)N(CCCN1CCOCC1)C3=O (configuration not stated) -2.47%
CCN(Cc1ccccc1)C(=O)c1cc2ccc3cccnc3c2[nH]1 4.36%
COc1ccc(N(Cc2cccs2)C(=O)COc2ccc([N+](=O)[O-])cc2)cc1 -6.43%
Cc1cc(Br)ccc1NC(=O)CN1C(=O)c2cccnc2Sc2ccccc21 -6.34%
CCOc1ccc(C(=O)Nc2cc(-c3ccccc3)no2)cc1 1.82%
O=C(c1ccco1)n1nc(-c2ccc(Cl)cc2)nc1NCc1ccc(F)cc1 25.6%
CN1CCSc2ccc(C(=O)NCc3ccccc3)cc21 -5.47%
CCCCN(Cc1ccco1)C(=O)Cn1ncc2c([nH]c3ccccc32)c1=O -0.794%
CN1c2ccccc2C(=O)N2CCc3c([nH]c4ccccc34)C21 (configuration not stated) -0.694%
Cc1cccc(Cn2cccc2CNS(=O)(=O)c2ccc(C)c(C)c2)c1 9.55%
Cc1nc(-n2nc(C)c(Cc3ccc4c(c3)OCO4)c2C)sc1C(=O)Nc1ccc(Cl)cc1 -1.29%
CCCOc1cccc(C2c3c(oc4ccc(F)cc4c3=O)C(=O)N2Cc2ccc3c(c2)OCO3)c1 (configuration not stated) 0.184%
Cc1ccc(-n2cnc3cc(C(=O)NCc4ccccc4Cl)ccc32)c(C)c1 -10.4%
CCOC(=O)c1scc(-c2ccc(C)cc2)c1S(=O)(=O)Nc1ccc(OC)c(Cl)c1 -2.93%
Cc1ccc(NC(=O)Cn2c(=O)n(CCC(=O)NCc3ccccc3Cl)c(=O)c3ccccc32)c(C)c1 -2.46%

outcome, inactive:
CCc1cccc(CC)c1N(COC)C(=O)Cn1c(C)nc2ccccc21
CCCCn1c(SCC(=O)Nc2cccc(OC)c2)nc2ccsc2c1=O
COc1ccc(NC(=O)C2CCC(CNS(=O)(=O)c3csc(C(N)=O)c3)CC2)cc1 (configuration not stated)
CCOC(=O)c1c(NC(=O)COc2cccc(C)c2C)sc2c1CCCCC2
COc1ccc(-c2cn3nc(N4CCC(C(=O)NCc5ccc(F)cc5)CC4)sc3n2)cc1
COC(=O)c1cc2sc(C)cc2n1Cc1ccccc1
CCOc1ccc(CCNC(=O)CN2C(=O)c3cccnc3Oc3ccc(C)cc32)cc1OCC
COc1ccc(-c2cc(C)no2)cc1S(=O)(=O)N1CCN(c2ccc(C(C)=O)cc2)CC1
Cc1ccc2oc(-c3cccc(NC(=O)c4cccc5c(Br)cccc45)c3)nc2c1
COc1ccc(NC(=O)CC2Nc3cccc4cccc(c34)NC2=O)cc1 (configuration not stated)
COCCCNC(=O)N1CCN(c2nnc(C)c3c(C)n(-c4ccc(Cl)cc4)nc23)CC1
CCc1ccc(NC(=O)CN(c2ccc(C)cc2)S(=O)(=O)c2c(C)nn(C)c2C)cc1
COc1ccc(CCNC(=O)CCc2c(C)nc3c(-c4ccc(F)cc4)c(C)nn3c2C)cc1OC
Cc1ccccc1CN1C(=O)c2ccccc2S(=O)c2ccc(C(=O)NCc3ccccc3)cc21 (configuration not stated)
O=C(c1cc(-c2ccc(Cl)cc2)on1)N(Cc1ccc(F)cc1)Cc1ccco1
CC(C)Sc1ncc(Cl)c(C(=O)Nc2c(C(=O)Nc3ccccc3)oc3ccccc23)n1
CCOc1ccccc1NC(=O)c1cc2ccc3cccnc3c2[nH]1
COc1ccc(CC(=O)NCc2ccc3c(c2)CCN3C(=O)c2cccc(C)c2)cc1
Cc1ccc2nc(N3CCN(c4ccccc4F)CC3)c3nnnn3c2c1
Clc1ccccc1Nc1ncnc2c1nc1n2CCCCC1
O=C(Nc1ccc2nc(SCCOc3ccccc3)sc2c1)c1ccc2c(c1)OCO2
Cc1cccc(NS(=O)(=O)c2ccc3nc(-c4ccccc4)[nH]c3c2)c1C
